Over roughly 33,000 sequences, “E-score (-0.5 to 0.5)” has its median near -0.032; the highest 2% begin near 0.36. The list shows a part of the results.
Target: T1, Sko1 (UniProt Q02100)
T1 sequence: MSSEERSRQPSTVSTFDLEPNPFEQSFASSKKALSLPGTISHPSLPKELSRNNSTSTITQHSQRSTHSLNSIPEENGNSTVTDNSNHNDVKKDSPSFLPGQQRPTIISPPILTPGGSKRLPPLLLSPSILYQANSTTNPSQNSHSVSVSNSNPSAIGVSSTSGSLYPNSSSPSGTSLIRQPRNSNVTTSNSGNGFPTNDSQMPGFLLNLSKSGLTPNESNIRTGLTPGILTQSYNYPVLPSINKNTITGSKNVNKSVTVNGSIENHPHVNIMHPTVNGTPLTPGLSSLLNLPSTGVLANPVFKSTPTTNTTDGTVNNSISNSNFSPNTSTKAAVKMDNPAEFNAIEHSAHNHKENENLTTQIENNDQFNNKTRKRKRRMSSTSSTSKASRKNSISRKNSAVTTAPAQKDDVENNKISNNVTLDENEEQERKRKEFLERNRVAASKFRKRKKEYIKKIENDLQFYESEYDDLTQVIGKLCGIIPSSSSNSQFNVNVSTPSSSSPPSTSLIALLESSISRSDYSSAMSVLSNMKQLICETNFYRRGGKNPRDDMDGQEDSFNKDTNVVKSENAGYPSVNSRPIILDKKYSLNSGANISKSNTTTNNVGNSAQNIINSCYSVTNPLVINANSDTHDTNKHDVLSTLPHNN
Assay: PBM E-score (8-mer binding enrichment) (E-score (-0.5 to 0.5)); higher = stronger / more preferred TF binding; most listed sequences are background and not binding sites
Conditions: protein concentration: 200 nM; construct: GST-full length
Summary of the method: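 The E-score, a modified Wilcoxon-Mann-Whitney statistic, was computed by the Universal PBM Analysis Suite for every ungapped eight-base word pooled with its reverse complement. Scans behind it were normalised with masliner after bound GST-tagged yeast transcription factors were detected with fluorescent anti-GST. The proteins, at about 100-200 nM, had been applied to universal all-10-mer Agilent arrays made double-stranded by primer extension.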

Sequence	PBM E-score
ACCATAAC	0.158
CCTCTGTC	-0.185
CACGTAAA	0.437
AGCTGCAC	-0.181
GACTCCAC	-0.155
ACTACCCT	-0.13
ACCCTTAA	-0.219
CTAAGAAA	0.108
TCGGGCCA	-0.317
CCAACCAC	0.0828
AACTCACA	0.0634
ACTCTTTG	-0.0774
AGCGTTTG	-0.0457
GGGCGGGA	-0.0916
CGGAGTGC	-0.185
ACAGGGGT	-0.325
AGCAGCAA	-0.155
CGAGTACA	-0.00074
AGGATCGC	-0.0051
GCAGGCAC	-0.156
ACGACCGT	-0.195
CCGTCCAA	-0.141
ACCAACAC	0.141
ATGAACTA	0.0693
GATGGTGC	-0.291

Sequence	PBM E-score
AGGTGCTA	-0.0841
CCCAGCCA	-0.183
CCTCGGTA	-0.287
ATGTCTAG	0.113
ATACGTGA	0.426
ACCTATGC	-0.112
CGCGTTAG	0.0679
ACGTCTTC	0.389
ATTACGAA	0.453
CCCGACAG	-0.134
ACCCCAGC	-0.111
ACGCAAAC	0.321
TATTTTAA	0.223
CCCATCAG	-0.278
CGGCATAG	-0.126
CCCGTTAG	-0.302
AGGCCGGC	-0.294
ATATGAAT	0.173
TCTCAAGA	0.00152
CCGCGCCC	-0.318
AAGAGTAC	-0.172
GGCCCGGA	-0.3
AATAGAGC	-0.017
CGTATGGC	0.348
GTCTTGGA	-0.139

Sequence	PBM E-score
CGAGGTCA	0.00065
GCTCCCGA	-0.204
CAAAATCA	0.106
ATAGTACA	0.0153
CGGTGTAG	-0.154
ACTTGCGC	0.0124
AGGGAAGG	-0.159
TAAATCTA	0.0922
AGCTGCGC	-0.0733
CCATTCTC	-0.0683
AAGCATCA	0.0233
ACCACTTC	-0.111
AACGCAAT	0.38
CTGGATTA	0.0575
TCGCTGCA	-0.025
TTACACAA	0.295
CTGTAGAC	0.0562
CGCGCGCG	0.00025
ATACTCGA	-0.11
GAGCGCGA	-0.121
CACGGAAG	-0.103
ATGACTTA	0.208
AACGTAGC	0.349
GCTGCTCC	-0.234
CGCTGTAC	-0.114

Sequence	PBM E-score
CGCCGTCA	0.0743
TCCGCTAA	-0.18
ACCCTTCT	-0.075
ACATGGGC	-0.0496
TAGGCAGA	-0.0375
GCTGGGCA	-0.18
AGCGTGAA	-0.156
AGGTCCTC	-0.221
GAGTGATC	-0.131
ATTTACGA	0.319
ATCTGACC	0.0857
AAGACCGC	-0.257
ACCAACTA	0.163
TCCGGAGA	-0.203
CATCATCG	0.347
CCACCTAG	-0.00493
GAATATAA	0.131
AGGAGGCC	-0.171
CTCGGGTC	-0.149
CGGTAATA	0.086
GATACTAC	0.0561
ATAGCTTC	0.0386
AGTAACCC	-0.0462
AACTATTG	0.14
AAGCCATT	-0.0496

Sequence	PBM E-score
TTACGAAA	0.396
CCCAAAGC	-0.0538
AGTGACAA	0.0709
CCTCTCCG	-0.301
ACGACTCG	-0.0123
TCACGACA	0.212
AGTAGGCA	-0.0135
AGATGAGG	-0.118
AGGAGTGC	-0.253
GAAACCTC	-0.105
ACAGAAAC	-0.00681
CAGGTAAC	-0.118
CGTATCTA	0.245
CCCTCAAC	-0.138
CGATATCG	0.242
CCATGTAG	-0.0679
ATCTGACA	-0.201
AGCTCTCG	-0.0918
AATGCCCT	-0.205
AAGAAAGA	-0.0503
TGATCGCA	0.00793
ACGGTCGG	-0.28
CTAGAAAC	0.0811
GGTGCCGA	-0.233
GCAGATCC	-0.205

Sequence	PBM E-score
CCACATTC	-0.0441
AGGGGGCC	-0.392
CATTAGCA	0.207
AGGTGACT	0.0898
CTTTCCGC	-0.0449
TGACCTAA	0.309
GATAGACA	-0.0594
CCAGTCGG	-0.142
ATCCTGTG	-0.173
AAGTATGG	0.023
ATTAGTAC	0.286
ATGGGCGG	-0.0827
AATAATTA	0.32
CTAAGATC	-0.059
GGTAGGTA	-0.0963
GCGTCCGA	-0.183
AGCGTTTC	-0.0234
CCCAATAG	0.0683
AGCCTTTG	-0.267
ACAGCCGA	-0.306
AACGGAAT	0.111
CGAGCACA	-0.00253
CGCGCTAA	0.164
GAATGTAA	0.00625
GCCCGGCC	-0.396

Sequence	PBM E-score
ATTCCAAC	0.0583
AGATTAGG	0.0796
GCCAACCA	-0.0814
CGTGCGTA	0.382
AGCCGGAA	-0.222
AAACATTC	0.0936
GGCGGATA	-0.0218
AAGGTTAA	0.06
CGACGACC	-0.114
CGCCTTCC	-0.325
ACGTAGCA	0.412
GACAACTC	0.0731
CCATGGTC	-0.276
ACCCCCTC	-0.404
ATGCAGAG	-0.276
ATGGCGAA	0.125
GGCTGAGA	-0.16
CGTCCTCA	-0.123
AAAAACAA	0.187
GTACCGAA	-0.0524
ACCGTACC	-0.244
GGGATCGA	-0.0773
CGCACCAA	0.0324
ACGAATTC	0.187
CAGCCCCC	-0.335

Sequence	PBM E-score
CTGGGAGA	-0.297
AGCTGGGG	-0.241
CCCCCGGC	-0.312
GATCCCGA	-0.298
ATATGGAG	0.0361
GTAAGGCA	0.119
AGGTCCCG	-0.25
GTCCATCA	-0.0105
CACGGCTG	-0.226
AGTCAATG	-0.0578
GATCGGGA	-0.0312
CTAAATAG	-0.0565
CCTGTGTC	-0.211
AGGGGAAG	-0.168
CGTAGTAC	0.372
GCCTCCGA	-0.29
ATCAGCGC	-0.0254
AGACACTG	-0.182
CCGCTCAA	-0.194
CTGCATCA	0.226
CCTACTTC	-0.0456
AAAGGGGT	-0.26
ATATACAC	0.276
AACAACGG	-0.14
CCGGTCAA	-0.12

Sequence	PBM E-score
CGGCACCC	-0.32
CATCGCGA	0.0564
CAAGACTC	-0.047
AGCTCAAA	0.0839
CGGTCAAA	-0.0179
GGAGGAAC	-0.14
ATAAGGCG	0.0753
ATCTCAAG	-0.0407
AGGCTTGA	-0.0134
CGACGTGA	0.344
ATAGTTGC	0.156
CAGGTGGC	-0.129
CGTAGTCA	0.3
TACAGAAA	0.056
CGACCTCC	-0.31
ACTTGAAT	0.0186
ACCAGCCG	-0.311
GAGGATAC	0.0269
CCAGTTCA	-0.179
AATCATTA	0.211
CCTCAGTA	-0.232
CAACTGAG	-0.101
GACAACCA	-0.0284
CGGTCAAC	-0.144
TAGCGCCA	-0.109

Sequence	PBM E-score
ACTTCAGA	0.00774
AGACGCCG	-0.168
GAAGCCGA	-0.167
TAGGGATA	-0.0567
GGCATCGA	-0.151
CGGCCCAC	-0.176
CCCTCCGC	-0.279
AATACACA	0.237
ATGTGGAA	0.14
GGAATAAC	-0.0143
CTGGTTAA	-0.126
CCTCTTAG	-0.0847
CTCGTACA	-0.00741
TAGTTTGA	0.2
TATTCACA	0.212
GCTGGGCC	-0.247
CGGGAATC	-0.26
CACTCGCG	-0.0604
GAGAAACC	-0.146
ACCTATGG	-0.195
CTATCCCA	-0.083
AGACGAGG	-0.3
AGTAATTA	0.263
CCTCCTTA	-0.201
ACTGTTCG	0.0219

Sequence	PBM E-score
ATAACGCC	0.1
ATCGCGTA	0.326
TAAACGTA	0.42
AACTCTTC	0.0128
ACGTGTGA	0.401
AACCGGTG	-0.169
TCACGTAA	0.472
GTCGATTA	0.186
CGGCCAAA	-0.0731
CACCGCTA	-0.192
ATTGTTAA	0.0942
CTGTTAAG	0.0532
AACTGTGT	-0.126
GCTTGACA	-0.0945
AGCAAGCA	-0.21
ACGGCCAT	-0.394
GCCCCCGC	-0.426
GACGCTGA	0.0227
TCCATGAA	0.0481
CGAGCAAC	0.026
GGTTACCA	-0.132
GTAGCGGA	-0.0973
ATTGGCAA	0.134
CGTCGGGA	0.0566
CTGGTCGC	-0.186

Sequence	PBM E-score
ACGCGGAT	0.145
ATTTCCCG	0.0255
ATCACGCA	0.308
AAAGCGCT	0.197
TAGAGGAA	-0.104
AAAGGTCT	-0.187
AGAGTGTA	-0.174
CCTGTTAA	-0.00046
ATAGAACA	0.0877
CGTCACTA	0.445
CCAATCAG	-0.279
AGCGGCAG	-0.147
ATGTACTA	-0.00357
CCGTGTTA	-0.0886
ACCTTTAG	-0.225
ACTAAGGC	-0.109
GCACGGCA	-0.072
AAATTCCA	0.0963
TCAGAGCA	-0.0464
GGGAGGTA	-0.198
ATATGATA	0.281
ACGCTGTG	0.239
GACTTAAC	0.0659
ACAACAAC	0.124
ACTCAAAT	0.235

Sequence	PBM E-score
AATTAATA	0.338
CGCTCCAG	-0.0473
GAGTGCGC	-0.0406
ATAATATA	0.268
ATCACGTG	0.411
AATCAAGC	0.103
AGACACCC	-0.159
CAACTTAC	0.0405
AGGTGTCG	-0.132
CTGGCCCA	-0.288
AGCCGCTA	-0.187
CATCAGGA	0.0868
CGCATGAC	0.34
TCGTGCAA	0.172
CCGGCTTC	-0.267
GAGGGTGC	-0.294
AAGTTGAT	0.125
CATAATCA	0.216
CCTCTCTC	-0.257
AGTGTCTG	-0.169
ACTGATGC	-0.197
ACCCGGTC	-0.324
ACTTATTC	0.0593
AAGCTTCG	-0.166
TAGGACCA	-0.122

Sequence	PBM E-score
CGTGCGAC	0.0911
CATCCAAA	0.168
AGTGGCAG	-0.195
ATTATATG	0.176
GGTTCTCA	-0.176
CACTTCGG	0.0598
CTCAATGA	0.195
CCCCGTAG	-0.2
TAACATTA	0.187
AGCAAAGC	0.0158
CCTCACGA	-0.182
TGCGAAAA	0.171
ATAATTCC	0.143
GTCCGGGA	-0.0399
ATCTCACA	0.0103
CCAATATC	-0.188
ACCTACCC	-0.289
AAGAGAGG	-0.17
GAAAAGTC	0.0461

Reference: the supplement of paper PMC3334620
